From PMC4336329 (PLoS ONE, 2015)
About 2,200 (0.71%) of roughly 310,000 compounds showed an effect of 50% or more. Effects have a minus sign here. This is one part of the list.

What follows are compounds tested against human ether-à-go-go-related gene (hERG) potassium channel (human, UniProt Q12809) (assay: primary screen, population patch clamp on CHO cells stably expressing hERG).
Sequence of human ether-à-go-go-related gene (hERG) potassium channel (Q12809 whole entry, looked up): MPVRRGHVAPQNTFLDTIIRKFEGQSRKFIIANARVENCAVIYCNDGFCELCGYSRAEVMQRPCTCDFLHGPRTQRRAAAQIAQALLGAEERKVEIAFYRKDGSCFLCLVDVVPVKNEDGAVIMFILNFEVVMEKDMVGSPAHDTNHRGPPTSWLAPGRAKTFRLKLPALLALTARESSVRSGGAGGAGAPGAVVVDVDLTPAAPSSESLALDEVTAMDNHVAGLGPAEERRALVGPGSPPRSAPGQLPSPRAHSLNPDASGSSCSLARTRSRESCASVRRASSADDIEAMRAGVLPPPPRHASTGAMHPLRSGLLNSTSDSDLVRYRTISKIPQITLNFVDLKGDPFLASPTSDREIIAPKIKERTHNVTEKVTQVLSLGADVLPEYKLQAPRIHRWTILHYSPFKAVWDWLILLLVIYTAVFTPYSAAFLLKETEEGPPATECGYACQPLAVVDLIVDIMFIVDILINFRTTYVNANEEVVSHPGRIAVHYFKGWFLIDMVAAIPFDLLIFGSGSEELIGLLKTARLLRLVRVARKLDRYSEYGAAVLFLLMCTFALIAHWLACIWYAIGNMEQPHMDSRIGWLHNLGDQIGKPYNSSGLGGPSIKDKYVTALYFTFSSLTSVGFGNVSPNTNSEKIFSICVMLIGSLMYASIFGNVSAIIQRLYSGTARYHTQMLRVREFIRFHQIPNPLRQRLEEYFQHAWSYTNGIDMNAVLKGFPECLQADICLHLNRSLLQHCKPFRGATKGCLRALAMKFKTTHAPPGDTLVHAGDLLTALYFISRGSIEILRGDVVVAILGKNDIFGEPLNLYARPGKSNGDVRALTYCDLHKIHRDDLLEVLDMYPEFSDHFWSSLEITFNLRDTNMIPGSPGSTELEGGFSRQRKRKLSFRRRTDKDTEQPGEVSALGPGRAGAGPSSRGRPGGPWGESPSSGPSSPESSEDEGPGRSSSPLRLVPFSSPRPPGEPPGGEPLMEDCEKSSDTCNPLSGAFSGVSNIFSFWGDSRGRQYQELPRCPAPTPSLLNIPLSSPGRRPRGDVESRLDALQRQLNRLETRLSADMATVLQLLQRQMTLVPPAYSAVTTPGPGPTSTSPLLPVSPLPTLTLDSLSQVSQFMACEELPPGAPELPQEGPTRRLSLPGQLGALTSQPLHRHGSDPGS
With COc1ccc(C2=NN(C(=O)C(O)c3ccccc3)C(O)(C(F)(F)F)C2)cc1 (stereo not shown) the “hERG current change (%, negative = inhibition) at 1uM” value was 2.34%.
In the case of CSC1=N/C(=C\c2ccccc2F)C(=O)S1, the “hERG current change (%, negative = inhibition) at 1uM” value is reported as 2.11%.
CCCCC1CCC(C(=O)N(CCCC)c2c(N)n(CCCC)c(=O)[nH]c2=O)CC1 (stereo not shown) was tested, and the “hERG current change (%, negative = inhibition) at 1uM” value was 0.626%.
For CC1CN(C2CCN(C(=O)COc3ccccc3)CC2)CC(C)O1 (stereo not shown), the “hERG current change (%, negative = inhibition) at 1uM” value was 6.3%.
In the case of CCn1c2ccccc2c2cc(CC(N)=O)ccc21, the “hERG current change (%, negative = inhibition) at 1uM” value is reported as 14.1%.
For C1CN(c2nc3nonc3n3nnnc23)CCO1, the “hERG current change (%, negative = inhibition) at 1uM” value was 10%.
For Cc1ccc(-c2nc3ccc(Cl)cc3c(=O)n2O)cc1, the “hERG current change (%, negative = inhibition) at 1uM” value was 27.7%.
With Cc1cccc(-c2sc(Nc3ccccc3)n[n+]2-c2ccc(F)cc2)c1.[Cl-] the “hERG current change (%, negative = inhibition) at 1uM” value was 20%.
For Cc1ccc(NC(=O)c2cc(S(=O)(=O)N3CCCCC3)cs2)cc1, the “hERG current change (%, negative = inhibition) at 1uM” value was 6.95%.
In the case of Cc1ccc(N(C)C(=O)N2CCN(S(=O)(=O)c3ccc(C)cc3)CC2)cc1, the “hERG current change (%, negative = inhibition) at 1uM” value is reported as 7.92%.
With COc1c([N+](=O)[O-])c(=O)oc2ccccc12 the “hERG current change (%, negative = inhibition) at 1uM” value was 16.1%.
For CCOc1cc2c(cc1OCC)-n1cccc1C(c1ccc(OC)cc1)NC2.Cl (stereo not shown), the “hERG current change (%, negative = inhibition) at 1uM” value was -16.8%.
Cc1cccc(N2CCN(S(=O)(=O)c3ccc4c(c3)CC(C)N4C(=O)C3CC3)CC2)c1C (stereo not shown) was tested, and the “hERG current change (%, negative = inhibition) at 1uM” value was 18.3%.
NC(=O)C1(N2CCCCC2)CCN(C2CC(=O)NC2=O)CC1 (stereo not shown) was tested, and the “hERG current change (%, negative = inhibition) at 1uM” value was -5.35%.
For CCN1CCN(c2cc(C)c3cc(NC(=O)c4ccc(C)c(C)c4)ccc3n2)CC1, the “hERG current change (%, negative = inhibition) at 1uM” value was 6.61%.
With CC1CC(C(F)(F)F)n2ncc(C(=O)O)c2N1 (stereo not shown) the “hERG current change (%, negative = inhibition) at 1uM” value was 7.08%.
Cc1cc(C(=O)CSc2nnc3c(Cl)cc(Cl)cn23)c(C)n1C was tested, and the “hERG current change (%, negative = inhibition) at 1uM” value was 14.3%.
With O=c1[nH]nc(Cc2ncc(C(F)(F)F)cc2Cl)c2ccccc12 the “hERG current change (%, negative = inhibition) at 1uM” value was 11%.
For NC1=NC(=O)/C(=C/c2cc(Br)c(O)c(Br)c2)S1, the “hERG current change (%, negative = inhibition) at 1uM” value was 12.9%.
For COC(=O)c1cccc(NC(=O)CCc2cc(OC)c(OC)c(OC)c2)c1, the “hERG current change (%, negative = inhibition) at 1uM” value was 6.83%.
With O=C(Nc1cc(C(=O)N2CCOCC2)cc(C(=O)N2CCOCC2)c1)c1cc(F)c(F)cc1Cl the “hERG current change (%, negative = inhibition) at 1uM” value was 10.2%.
With CC(=O)Nc1ccc(NC(=O)c2ccc(NS(=O)(=O)c3cc(C(C)(C)C)cc(C)c3C)cc2)cc1 the “hERG current change (%, negative = inhibition) at 1uM” value was 5.11%.
In the case of Cc1nc2nc(-c3cccnc3)[nH]n2c(=O)c1C, the “hERG current change (%, negative = inhibition) at 1uM” value is reported as 16.7%.
With Cc1ccc(CNC(=O)CCc2ccc(S(=O)(=O)NCC(C)C)cc2)cc1 the “hERG current change (%, negative = inhibition) at 1uM” value was -2.28%.
For O=C(Cn1cccc1)Nc1ccc(F)cc1F, the “hERG current change (%, negative = inhibition) at 1uM” value was -9.4%.
